The list shows a part of the results.
Columns and labels:
Assay in all cases: glycan array binding signal (z-score within array); higher = stronger binding
Conditions in all cases: glycan notation: IUPAC condensed, linker removed
Gal(a1-6)Glc = molecular target: Gal(a1-6)Glc
Outline: (§1)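 The binding signal is a Z-score computed within each array. Data were drawn from 3228 arrays in the Consortium for Functional Glycomics database, restricted to those with a known protein sequence. Scores were averaged over arrays of the same protein sequence at different concentrations or buffers, and over linkers, and negative values can be taken as non-binding.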

Gal(b1-2)Gal = molecular target: Gal(b1-2)Gal
Outline: as §1

Gal(b1-3)Gal = molecular target: Gal(b1-3)Gal
Outline: as §1

Gal(b1-3)Gal(b1-4)GlcNAc = molecular target: Gal(b1-3)Gal(b1-4)GlcNAc
Outline: as §1

Gal(b1-3)GalNAc = molecular target: Gal(b1-3)GalNAc
Outline: as §1

[1] = molecular target: Gal(b1-3)GalNAc(a1-3)[Fuc(a1-2)]Gal(b1-4)Glc
Outline: as §1

[2] = molecular target: Gal(b1-3)GalNAc(a1-3)[Fuc(a1-2)]Gal(b1-4)GlcNAc
Outline: as §1

Gal(b1-3)GalNAc(b1-3)Gal = molecular target: Gal(b1-3)GalNAc(b1-3)Gal
Outline: as §1

[3] = molecular target: Gal(b1-3)GalNAc(b1-3)Gal(a1-4)Gal(b1-4)Glc
Outline: as §1

[4] = molecular target: Gal(b1-3)GalNAc(b1-4)Gal(b1-4)Glc
Outline: as §1

[5] = molecular target: Gal(b1-3)GalNAc(b1-4)[Neu5Ac(a2-3)]Gal(b1-4)Glc
Outline: as §1

Gal(b1-3)GlcNAc = molecular target: Gal(b1-3)GlcNAc
Outline: as §1

[6] = molecular target: Gal(b1-3)GlcNAc(a1-3)Gal(b1-4)GlcNAc
Outline: as §1

[7] = molecular target: Gal(b1-3)GlcNAc(a1-6)Gal(b1-4)GlcNAc
Outline: as §1

Gal(b1-3)GlcNAc(b1-2)Man = molecular target: Gal(b1-3)GlcNAc(b1-2)Man
Outline: as §1

[8] = molecular target: Gal(b1-3)GlcNAc(b1-2)Man(a1-3)[Gal(b1-3)GlcNAc(b1-2)Man(a1-6)]Man(b1-4)GlcNAc(b1-4)GlcNAc
Outline: as §1

[9] = molecular target: Gal(b1-3)GlcNAc(b1-2)Man(a1-3)[Gal(b1-3)GlcNAc(b1-2)Man(a1-6)]Man(b1-4)GlcNAc(b1-4)[Fuc(a1-6)]GlcNAc
Outline: as §1

[10] = molecular target: Gal(b1-3)GlcNAc(b1-2)Man(a1-3)[GlcNAc(b1-4)][Gal(b1-3)GlcNAc(b1-2)Man(a1-6)]Man(b1-4)GlcNAc(b1-4)GlcNAc
Outline: as §1

[11] = molecular target: Gal(b1-3)GlcNAc(b1-2)[Gal(b1-3)GlcNAc(b1-6)]Man(a1-6)[Gal(b1-3)GlcNAc(b1-2)Man(a1-3)]Man(b1-4)GlcNAc(b1-4)GlcNAc
Outline: as §1

[12] = molecular target: Gal(b1-3)GlcNAc(b1-3)Gal(b1-3)GlcNAc
Outline: as §1

[13] = molecular target: Gal(b1-3)GlcNAc(b1-3)Gal(b1-4)Glc
Outline: as §1

[14] = molecular target: Gal(b1-3)GlcNAc(b1-3)Gal(b1-4)GlcNAc
Outline: as §1

[15] = molecular target: Gal(b1-3)GlcNAc(b1-3)Gal(b1-4)GlcNAc(b1-2)Man(a1-3)[Gal(b1-3)GlcNAc(b1-3)Gal(b1-4)GlcNAc(b1-2)Man(a1-6)]Man(b1-4)GlcNAc(b1-4)GlcNAc
Outline: as §1

[16] = molecular target: Gal(b1-3)GlcNAc(b1-3)Gal(b1-4)GlcNAc(b1-2)[Gal(b1-3)GlcNAc(b1-3)Gal(b1-4)GlcNAc(b1-6)]Man(a1-6)[Gal(b1-3)GlcNAc(b1-3)Gal(b1-4)GlcNAc(b1-2)Man(a1-3)]Man(b1-4)GlcNAc(b1-4)[Fuc(a1-6)]GlcNAc
Outline: as §1

[17] = molecular target: Gal(b1-3)GlcNAc(b1-3)Gal(b1-4)GlcNAc(b1-3)Gal(b1-4)GlcNAc(b1-2)[Gal(b1-3)GlcNAc(b1-3)Gal(b1-4)GlcNAc(b1-3)Gal(b1-4)GlcNAc(b1-6)]Man(a1-6)[Gal(b1-3)GlcNAc(b1-3)Gal(b1-4)GlcNAc(b1-3)Gal(b1-4)GlcNAc(b1-2)Man(a1-3)]Man(b1-4)GlcNAc(b1-4)[Fuc(a1-6)]GlcNAc
Outline: as §1

[18] = molecular target: Gal(b1-3)GlcNAc(b1-3)Gal(b1-4)GlcNAc(b1-6)[Gal(b1-3)GlcNAc(b1-3)]Gal(b1-4)Glc
Outline: as §1

[19] = molecular target: Gal(b1-3)GlcNAc(b1-3)Gal(b1-4)[Fuc(a1-3)]GlcNAc
Outline: as §1

[20] = molecular target: Gal(b1-3)GlcNAc(b1-3)Gal(b1-4)[Fuc(a1-3)]GlcNAc(b1-6)[Gal(b1-3)GlcNAc(b1-3)]Gal(b1-4)Glc
Outline: as §1

[21] = molecular target: Gal(b1-3)GlcNAc(b1-3)GalNAc
Outline: as §1

[22] = molecular target: Gal(b1-3)GlcNAc(b1-6)Gal(b1-4)GlcNAc
Outline: as §1

[23] = molecular target: Gal(b1-3)GlcNAc(b1-6)GalNAc
Outline: as §1

[24] = molecular target: Gal(b1-3)GlcNAc(b1-6)[Gal(b1-3)]GalNAc
Outline: as §1

Gal(b1-3)GlcNAc6S = molecular target: Gal(b1-3)GlcNAc6S
Outline: as §1

[25] = molecular target: Gal(b1-3)[Fuc(a1-4)]GlcNAc
Outline: as §1

[26] = molecular target: Gal(b1-3)[Fuc(a1-4)]GlcNAc(b1-2)Man
Outline: as §1

[27] = molecular target: Gal(b1-3)[Fuc(a1-4)]GlcNAc(b1-2)Man(a1-3)[Gal(b1-3)[Fuc(a1-4)]GlcNAc(b1-2)Man(a1-6)]Man(b1-4)GlcNAc(b1-4)[Fuc(a1-6)]GlcNAc
Outline: as §1

[28] = molecular target: Gal(b1-3)[Fuc(a1-4)]GlcNAc(b1-3)Gal(b1-3)[Fuc(a1-4)]GlcNAc
Outline: as §1

[29] = molecular target: Gal(b1-3)[Fuc(a1-4)]GlcNAc(b1-3)Gal(b1-4)[Fuc(a1-3)]GlcNAc
Outline: as §1

[30] = molecular target: Gal(b1-3)[Fuc(a1-4)]GlcNAc(b1-6)GalNAc
Outline: as §1

[31] = molecular target: Gal(b1-3)[GlcNAc(b1-6)]GalNAc
Outline: as §1

[32] = molecular target: Gal(b1-3)[Neu5Ac(a2-6)]GalNAc
Outline: as §1

[33] = molecular target: Gal(b1-3)[Neu5Ac(a2-6)]GlcNAc(b1-4)Gal(b1-4)Glc
Outline: as §1

[34] = molecular target: Gal(b1-3)[Neu5Ac(b2-6)]GalNAc
Outline: as §1

Gal(b1-4)Gal = molecular target: Gal(b1-4)Gal
Outline: as §1

[35] = molecular target: Gal(b1-4)GalNAc(a1-3)[Fuc(a1-2)]Gal(b1-4)GlcNAc
Outline: as §1

B1: CpGal16 (Clavelina picta) (protein)
chain: MAKMITNYVGKRIECIMVATDMMSTVFSLASATGDLPFYINFRQRENSIVMNTRVHGKWQYEKSQSSGGMNFYEPFRLVVEVRPSVFKVTVSTMGEEDGITFNLQYSQITIKPDEIVAMHLGYCNLRSELLVTDL
Gal(a1-6)Glc
  glycan array binding signal (z-score): -0.353
Gal(b1-2)Gal
  glycan array binding signal (z-score): -0.316
Gal(b1-3)Gal
  glycan array binding signal (z-score): -0.285
Gal(b1-3)Gal(b1-4)GlcNAc
  glycan array binding signal (z-score): 0.05
Gal(b1-3)GalNAc
  glycan array binding signal (z-score): -0.391
[1]
  glycan array binding signal (z-score): 1.88
[2]
  glycan array binding signal (z-score): 1.11
Gal(b1-3)GalNAc(b1-3)Gal
  glycan array binding signal (z-score): -0.529
[3]
  glycan array binding signal (z-score): -0.233
[4]
  glycan array binding signal (z-score): -0.404
[5]
  glycan array binding signal (z-score): -0.454
Gal(b1-3)GlcNAc
  glycan array binding signal (z-score): 0.703
[6]
  glycan array binding signal (z-score): 1.46
[7]
  glycan array binding signal (z-score): 0.048
Gal(b1-3)GlcNAc(b1-2)Man
  glycan array binding signal (z-score): 0.015
[8]
  glycan array binding signal (z-score): 1.83
[9]
  glycan array binding signal (z-score): 0.609
[10]
  glycan array binding signal (z-score): 2.87
[11]
  glycan array binding signal (z-score): 1.83
[12]
  glycan array binding signal (z-score): 1.61
[13]
  glycan array binding signal (z-score): 0.915
[14]
  glycan array binding signal (z-score): 1.29
[15]
  glycan array binding signal (z-score): 3.83
[16]
  glycan array binding signal (z-score): 3.99
[17]
  glycan array binding signal (z-score): 4.48
[18]
  glycan array binding signal (z-score): 2.57
[19]
  glycan array binding signal (z-score): 1.1
[20]
  glycan array binding signal (z-score): 3.33
[21]
  glycan array binding signal (z-score): 0.241
[22]
  glycan array binding signal (z-score): 0.847
[23]
  glycan array binding signal (z-score): 1.26
[24]
  glycan array binding signal (z-score): 0.952
Gal(b1-3)GlcNAc6S
  glycan array binding signal (z-score): -0.144
[25]
  glycan array binding signal (z-score): -0.302
[26]
  glycan array binding signal (z-score): -0.25
[27]
  glycan array binding signal (z-score): -0.368
[28]
  glycan array binding signal (z-score): -0.449
[29]
  glycan array binding signal (z-score): -0.437
[30]
  glycan array binding signal (z-score): -0.27
[31]
  glycan array binding signal (z-score): -0.334
[32]
  glycan array binding signal (z-score): -0.439
[33]
  glycan array binding signal (z-score): 0.438
[34]
  glycan array binding signal (z-score): -0.481
Gal(b1-4)Gal
  glycan array binding signal (z-score): -0.414
[35]
  glycan array binding signal (z-score): 1.04

Reference: the supplement of paper PMC8728848
